The source of these data is the BET-seq Pho4 binding data (Le et al. 2018).

Some of the results follow. Values were computed here from the reads of four pooled replicates and scatter widely.

The target in the experiment is T1, Pho4 (S. cerevisiae) (UniProt P07270).
T1 sequence: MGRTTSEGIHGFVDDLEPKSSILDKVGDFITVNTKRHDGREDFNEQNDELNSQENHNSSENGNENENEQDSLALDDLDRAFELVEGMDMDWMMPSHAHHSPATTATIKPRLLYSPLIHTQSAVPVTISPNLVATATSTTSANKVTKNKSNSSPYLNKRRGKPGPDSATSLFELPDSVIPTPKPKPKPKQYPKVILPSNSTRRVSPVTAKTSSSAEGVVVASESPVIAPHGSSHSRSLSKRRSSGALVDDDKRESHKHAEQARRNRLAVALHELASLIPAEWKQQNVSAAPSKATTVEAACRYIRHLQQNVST
Briefly: relative binding free energy (BET-seq); higher = weaker binding. The settings on record: reference: library average.
Take CGGGGCACGTGGGTTA: the “relative binding free energy” value was -0.15 kcal/mol.
In the case of GTAAGCACGTGTAGAG it was -0.09 kcal/mol.
Take GCAGTCACGTGTTGTG: the “relative binding free energy” value is 0.16 kcal/mol.
As for CGTTACACGTGTTTAG, the figure is 0.07 kcal/mol; as for ATTTACACGTGTCTTT, -0.01 kcal/mol; as for GGGATCACGTGGTGCG, 0.25 kcal/mol.
As to AGTGGCACGTGTTCGT, the “relative binding free energy” value was -0.1 kcal/mol.
As for TACATCACGTGTTAGG, the figure is 0.24 kcal/mol.
As for GAGAGCACGTGTGAGT, the figure is -0.1 kcal/mol.
Regarding TACCTCACGTGATGGG, the “relative binding free energy” value is 0.52 kcal/mol.
As for TTATGCACGTGAGATA, the figure is 0.15 kcal/mol; as for GTCGTCACGTGTGGGA, 0.2 kcal/mol.
For the sequence ACTAGCACGTGTGGTG, the “relative binding free energy” value was -0.18 kcal/mol.
As for GTAGCCACGTGGGTGG, the figure is -0.19 kcal/mol; as for GAGTCCACGTGGTTAT, 0.28 kcal/mol; as for TTTGTCACGTGTAATT, 0.13 kcal/mol.
As to AAAGACACGTGGGTAG, the “relative binding free energy” value was -0.07 kcal/mol.
On to CTGGTCACGTGAATTT, for which the “relative binding free energy” value amounted to 0.2 kcal/mol.
For AGCATCACGTGTTCGT, the “relative binding free energy” value came out at 0.26 kcal/mol.
With TTCAGCACGTGAGATT, the “relative binding free energy” value was 0.38 kcal/mol.
For the sequence AGGTTCACGTGATTAG, the “relative binding free energy” value turned out to be 0.35 kcal/mol.
In the case of TCGGGCACGTGTGATA it was -0.06 kcal/mol; in that of GGCCACACGTGTGGGG, 0.1 kcal/mol; in that of TCGATCACGTGGGGGC, 0.05 kcal/mol.
With GGATGCACGTGGAATG, the “relative binding free energy” value was 0.14 kcal/mol.
As for GGTGCCACGTGGGCTT, the figure is -0.06 kcal/mol; as for GCAATCACGTGGTGGT, 0.08 kcal/mol.
On to TTTGTCACGTGGGGTA, for which the “relative binding free energy” value is -0.1 kcal/mol.
As for TGGTTCACGTGTACTT, the figure is 0.27 kcal/mol; as for GGGGTCACGTGATAGA, 0.39 kcal/mol.
As for AGTTCCACGTGGTTAT, the figure is -0.03 kcal/mol; as for TGTATCACGTGAGGCA, 0.24 kcal/mol; as for TCGATCACGTGATTGT, 0.45 kcal/mol.
In the case of CTCTGCACGTGGTTGT it was -0.15 kcal/mol; in that of TGGAACACGTGAGTGA, 0.35 kcal/mol; in that of TTAGGCACGTGGGCAT, -0.28 kcal/mol.
In the case of CTCGGCACGTGGGGTC, the “relative binding free energy” value was -0.17 kcal/mol.
Turning to TAGGTCACGTGGATTT, the “relative binding free energy” value is 0.17 kcal/mol.
In the case of TAGGGCACGTGATGAG it was -0.1 kcal/mol.
Regarding TCATACACGTGTTGGG, the “relative binding free energy” value was 0.1 kcal/mol.
Turning to TGAATCACGTGATGCG, the “relative binding free energy” value is 0.23 kcal/mol.
For the sequence ATTAACACGTGTAGCG, the “relative binding free energy” value was 0.02 kcal/mol.
Take CGGGGCACGTGATTAT: the “relative binding free energy” value amounted to 0.07 kcal/mol.
Regarding TTGTTCACGTGTCGGC, the “relative binding free energy” value was 0.36 kcal/mol.
As for TGAATCACGTGCGATG, the figure is 0.37 kcal/mol; as for TTGTGCACGTGGAAGC, 0.12 kcal/mol; as for AGGCACACGTGGGGAT, -0.07 kcal/mol.
In the case of GGCGTCACGTGGCCGG it was -0.08 kcal/mol; in that of GGTAGCACGTGTTGTT, 0 kcal/mol.
In the case of TTCGGCACGTGTTGAG it was 0 kcal/mol; in that of ATGAGCACGTGGAATT, 0.18 kcal/mol; in that of ATTTGCACGTGAGAAT, 0.24 kcal/mol.
Regarding CGAATCACGTGGTGTT, the “relative binding free energy” value is 0.06 kcal/mol.
As for TGGAGCACGTGTGTAT, the figure is 0.1 kcal/mol.
As for CGGCGCACGTGTGAAT, the figure is 0.14 kcal/mol.
As for TCATTCACGTGTGAAG, the figure is 0.3 kcal/mol.
With AGATTCACGTGGATTT, the “relative binding free energy” value worked out at 0.35 kcal/mol.
On to GGTTACACGTGGAGAT, for which the “relative binding free energy” value amounted to 0.28 kcal/mol.
Turning to ATGGACACGTGTGTGC, the “relative binding free energy” value came to 0.02 kcal/mol.
As for AGCGGCACGTGTGTGG, the figure is -0.09 kcal/mol; as for TTGGGCACGTGCGAAG, -0.11 kcal/mol; as for CTGGGCACGTGTCCGG, -0.12 kcal/mol.
In the case of GGGTTCACGTGATATG it was 0.3 kcal/mol.
As for TGCTTCACGTGTGGAG, the figure is 0.34 kcal/mol; as for TCTGTCACGTGATTCG, 0.41 kcal/mol.
As for CTCGACACGTGGGGTT, the “relative binding free energy” value was -0.13 kcal/mol.
As to GTTGCCACGTGGTTAA, the “relative binding free energy” value was -0.13 kcal/mol.
As for TGGCGCACGTGGTCGT, the “relative binding free energy” value is -0.2 kcal/mol.
With TTTTCCACGTGGAGTA, the “relative binding free energy” value is 0.07 kcal/mol.
Regarding TTTTTCACGTGATATG, the “relative binding free energy” value was determined as 0.37 kcal/mol.
Regarding ATTAACACGTGAAAGG, the “relative binding free energy” value came out at 0.28 kcal/mol.
As for TTCTACACGTGGGTTG, the figure is -0.06 kcal/mol.
On to ACGGTCACGTGGCGGT, for which the “relative binding free energy” value was 0.02 kcal/mol.
In the case of GTATCCACGTGGTTTT it was 0.1 kcal/mol; in that of TGATTCACGTGTTGCA, 0.12 kcal/mol.
As to TGCGGCACGTGGCTTT, the “relative binding free energy” value is -0.21 kcal/mol.
As for ATTATCACGTGTATCT, the figure is 0.04 kcal/mol; as for GGGTGCACGTGCTGGT, -0.04 kcal/mol; as for TTTAGCACGTGTTGGT, -0.12 kcal/mol.
Regarding GATTGCACGTGTTTCT, the “relative binding free energy” value was determined as 0.05 kcal/mol.
As for GTAGTCACGTGGGTCA, the figure is -0.13 kcal/mol.
For GCTGTCACGTGAGTTG, the “relative binding free energy” value turned out to be 0.3 kcal/mol.
As for AATGTCACGTGATTAT, the “relative binding free energy” value is 0.3 kcal/mol.
In the case of TGTCACACGTGGTGTG it was -0.01 kcal/mol; in that of TTATACACGTGTCGGT, 0.01 kcal/mol; in that of TACCTCACGTGTTTTT, 0.32 kcal/mol.
As for GGTGGCACGTGTATTC, the figure is 0.11 kcal/mol; as for GATGGCACGTGGGAGA, -0.25 kcal/mol.
In the case of AAGTACACGTGTTGTT it was 0.08 kcal/mol; in that of TGCGGCACGTGTAGTT, 0.02 kcal/mol.
With CGGGGCACGTGGAGAA, the “relative binding free energy” value is -0.05 kcal/mol.
In the case of TTAGGCACGTGCTTAT it was -0.13 kcal/mol; in that of ATAAGCACGTGGTCTG, -0.27 kcal/mol.
Consider GATGGCACGTGCAGGC, for which the “relative binding free energy” value stood at 0.02 kcal/mol.
In the case of TAGTTCACGTGATGCG, the “relative binding free energy” value turned out to be 0.31 kcal/mol.
As for CGGGGCACGTGGGGAG, the figure is -0.15 kcal/mol; as for GAGTGCACGTGTGAGC, 0.17 kcal/mol; as for AGCGTCACGTGATGTT, 0.21 kcal/mol.
In the case of GGGTACACGTGTGGGC it was 0.24 kcal/mol; in that of AGTATCACGTGGCATG, -0.09 kcal/mol.
On to GAGGTCACGTGCTATT, for which the “relative binding free energy” value was found to be 0.19 kcal/mol.
On to GTTGCCACGTGTTGAG, for which the “relative binding free energy” value was -0.06 kcal/mol.
Take ACTTTCACGTGTGTGA: the “relative binding free energy” value amounted to 0.27 kcal/mol.
As for GAGAACACGTGGGAGG, the “relative binding free energy” value was -0.05 kcal/mol.
With TAATACACGTGGTATA, the “relative binding free energy” value is -0.02 kcal/mol.
As for TTATTCACGTGGGACT, the figure is 0.16 kcal/mol.
On to ATTGGCACGTGATTAG, for which the “relative binding free energy” value was found to be 0.04 kcal/mol.
In the case of TCGTGCACGTGTGCAG it was -0.03 kcal/mol; in that of TGAGACACGTGGGAGG, -0.09 kcal/mol; in that of GGGAGCACGTGTGATG, -0.1 kcal/mol.
In the case of ATAAACACGTGTGGGG it was 0.15 kcal/mol; in that of GGTGTCACGTGCTGAT, -0.01 kcal/mol.
As for GGTATCACGTGGAGCT, the figure is 0.14 kcal/mol; as for GTATACACGTGGTTTT, 0.23 kcal/mol; as for AGTTGCACGTGCAGTT, 0.07 kcal/mol.
